# PubChem BioAssay AID624171 (National Center for Advancing Translational Sciences (NCATS), 2012)
# The whole screen tested about 410,000 compounds, of which about 1,200 (0.29%) were called active. Inconclusive results, whose numbers are uncertain, are shown with a selection of clear calls. Calls follow the shape of the dose curve; as a rule, active = well fitted activation curve with a large enough effect; inconclusive = small, poorly fitted or top-dose-only effect; inactive = flat fitted curve, though single readings scatter. Where the call is inconclusive, the potency comes from a doubtful curve fit.
# Experiment: qHTS of Nrf2 Activators; also: nearly all actives have a fitted effect of over 65% in size; as to activation: % of control where 0% means no effect
# Conditions: AREc32 ARE-luciferase reporter (MCF7-derived line), luminescence, 24 h; activation: at 46.1 µM (top of the series)
# Outline: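 ARE activation measured as luciferase luminescence (Steady-Glo, 30 min RT) in AREc32_Fluc cells after 24 hr compound exposure at 37 deg C, 5% CO2; cells seeded overnight at 1000/well in OPTI-MEM, 5% FBS.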
# Potency is read from the fitted curve at half-maximal effect; tags tell the direction and shape of the fitted curve.
SMILES,activation,Potency
CCOC(=O)c1sc(NC(=O)C(C)Oc2ccc(OC)cc2)c(C(=O)OCC)c1C (stereo not drawn),inactive: 0.555%,–
N#CC1(NC(=O)COC(=O)/C=C/c2ccc3ccccc3n2)CCCCC1,–,"inconclusive: 20 µM [activator, single point]"
CCC/C(=N\NC(=O)c1ccco1)c1ccc(Cl)s1,–,"inconclusive: 7.08 µM [activator, partial curve]"
O=c1oc2ccc3ccccc3c2cc1-c1nnc(Nc2ccc(Cl)cc2Cl)s1,inactive: 0.53%,–
CC1CCCCN1C(=O)COC(=O)/C=C/c1ccc2ccccc2n1 (stereo not drawn),–,"inconclusive: 15.8 µM [activator, partial curve, poor fit]"
CN(C)CCCNC(=O)C1(O)c2cc(Br)ccc2NC(=O)N1c1ccc(Cl)cc1 (stereo not drawn),inactive: 3.12%,–
NS(=O)(=O)c1ccc(CCN2C(=O)/C(=C\c3ccc(Cl)cc3)SC2=S)cc1,–,"inconclusive: 3.98 µM [activator, partial curve]"
COc1ccc(N2CC(NC(=O)C3CC3)CC2=O)cc1 (stereo not drawn),inactive: 0.634%,–
O=C(Nc1nc2c(s1)CCCC2)c1ccc(Br)o1,–,active: 12.6 µM
COc1ccc(C2c3cccn3CCN2S(=O)(=O)c2ccccc2[N+](=O)[O-])cc1OC (stereo not drawn),–,"inconclusive: 11.2 µM [activator, partial curve]"
CCOc1ccc(C(=O)CC(NCc2cccs2)C(=O)O)cc1 (stereo not drawn),–,active: 11.2 µM
CCc1nc(Nc2cccc(F)c2)c2oc3ccccc3c2n1,–,"inconclusive: 2.24 µM [activator, full curve]"
COc1ccccc1NC(=O)CSc1ccc(-c2sc(C)nc2C)nn1,inactive: 5.85%,–
Brc1ccc(/C=N/Nc2ccccn2)cc1,–,active: 12.6 µM
CCN(CC)c1ccc(C=C(c2nnnn2-c2ccccc2)c2nnnn2-c2ccccc2)cc1,inactive: 5.17%,–
CNC(=O)COC(=O)c1[nH]c(C)c(C(C)=O)c1C,inactive: -0.105%,–
CC1CN(c2ncnc3c2cnn3-c2ccc(Cl)cc2)CC(C)O1 (stereo not drawn),inactive: -0.668%,–
Oc1[nH]c2ccccc2c1N=Nc1ccccn1,–,"inconclusive: 3.55 µM [activator, partial curve, poor fit]"
COc1cc(Cl)c(C)cc1NC(=O)COc1ccccc1[N+](=O)[O-],–,"inconclusive: 14.1 µM [activator, partial curve, poor fit]"
COc1nc2c(C)cccc2cc1-c1noc(-c2ccco2)n1,–,"inconclusive: 1.41 µM [activator, partial curve, poor fit]"
COc1ccc(C2C3=C(CC(C)(C)CC3=O)Oc3ncn(Cc4ccco4)c(=N)c32)cc1 (stereo not drawn),inactive: 8.98%,–
C[C@@H]1CN([C@@H](C)CO)C(=O)c2cc(NS(C)(=O)=O)ccc2O[C@H]1CN(C)Cc1ccc(Oc2ccccc2)cc1,inactive: 4.24%,–
Cc1ccc(NC(=O)CSc2nc(-c3ccc(F)cc3)cc(C(F)(F)F)c2C#N)cc1,inactive: -0.572%,–
O=C(C=Cc1ccccc1)CC(c1ccccc1)N1CCOCC1 (stereo not drawn),–,"inconclusive: 4.47 µM [activator, single point]"
N#Cc1ccc(CSC2=NCCN2)cc1,–,"inconclusive: 31.6 µM [activator, single point]"

SMILES,activation,Potency
Oc1ccccc1-c1nc(/C=C/c2ccccc2Cl)no1,–,"inconclusive: 10 µM [activator, partial curve, poor fit]"
O=S(=O)(/C(=C/c1ccc(C(F)(F)F)cc1)c1nc2ccccc2[nH]1)c1ccccc1,–,"inconclusive: 1.12 µM [activator, full curve, poor fit]"
O=C(NC(=S)N1CCCc2ccccc21)c1ccccc1,–,"inconclusive: 12.6 µM [activator, partial curve, poor fit]"
CC(C)/C(=N/Nc1ccccc1[N+](=O)[O-])c1ccccc1,–,"inconclusive: 15.8 µM [activator, partial curve, poor fit]"
CCOC(=O)C(=Cc1ccc(OCc2ccc([N+](=O)[O-])cc2)c(OC)c1)C(=O)OCC,–,"inconclusive: 3.55 µM [activator, single point]"
C=CCNc1nc(-c2cccs2)c(CC(=O)O)s1,–,"inconclusive: 14.1 µM [activator, single point]"
CCOc1cccc(C2C(C#N)=C(N)Oc3cc(C)[nH]c(=O)c32)c1OCC (stereo not drawn),inactive: -0.0255%,–
O=C(NNC(=O)c1ccc[nH]1)c1cccc(C(F)(F)F)c1,–,"inconclusive: 14.1 µM [activator, partial curve, poor fit]"
O=[N+]([O-])c1ccc(N/N=C/c2cccs2)nc1,–,"inconclusive: 6.31 µM [activator, partial curve, poor fit]"
Cc1ccc2oc(-c3ccccc3)c(C(=O)O)c(=O)c2c1,–,"inconclusive: 7.08 µM [activator, partial curve, poor fit]"
CCOC(=O)C(=CNNc1c(C)csc1C(=O)OC)C(=O)OCC,–,"inconclusive: 22.4 µM [activator, single point]"
CCC1S/C(=N/N=C/c2ccco2)NC1=O (stereo not drawn),–,"inconclusive: 12.6 µM [activator, partial curve]"
O=C(CCCc1ccccc1)Nc1cccc([N+](=O)[O-])c1,–,"inconclusive: 2.24 µM [activator, full curve]"
O=C(Cn1nc(C(=O)O)c2ccccc2c1=O)c1c[nH]c2ccccc12,–,"inconclusive: 15.8 µM [activator, partial curve, poor fit]"
C=CCNc1nc(-c2cc3ccccc3o2)cs1,–,"inconclusive: 11.2 µM [activator, partial curve, poor fit]"
CCN(CC)CCC(=O)N1c2ccccc2Sc2ccc(NC(=O)OC)cc21,–,"inconclusive: 25.1 µM [activator, single point]"
COc1cccc(C2=CC(=O)C[C@H](c3ccc(F)cc3)C2)c1,inactive: -0.39%,–
COc1ccccc1-c1cc(C(F)(F)F)nc(S(=O)(=O)CCCC(=O)O)n1,–,active: 11.2 µM
Cn1c(CNc2ccc(O)cc2)nc2ccccc21,–,"inconclusive: 31.6 µM [activator, single point]"
CN(C)CCC(=O)c1ccc(Cl)cc1,–,"inconclusive: 35.5 µM [activator, single point]"
COc1ccccc1OCC(=O)Nc1cc(S(=O)(=O)N2CCOCC2)ccc1N1CCCCC1,inactive: -0.444%,–
N/C(=N/OC(=O)c1ccccc1Cl)c1nonc1N,–,active: 12.6 µM
CSc1nc(N)nc(SCC(=O)c2ccccc2)c1C#N,–,"inconclusive: 3.16 µM [activator, full curve]"
Cc1ccc(S(=O)(=O)N2CCN(C(=O)c3ccc(COc4ccccc4)o3)CC2)cc1,inactive: -0.32%,–
C(=C\n1nnc2ccccc21)/c1ccccn1,–,"inconclusive: 2.51 µM [activator, full curve, poor fit]"

SMILES,activation,Potency
CN(C)S(=O)(=O)c1ccc(-c2csc(N/N=C/c3ccc(O)cc3)n2)cc1,–,"inconclusive: 3.55 µM [activator, single point]"
C#CCN(CC(=O)OCC)S(=O)(=O)CCNC1CC1,inactive: 0.0555%,–
CNS(=O)(=O)c1cccc(C(=O)OCC(=O)c2ccc3c(c2)OCCO3)c1,inactive: -0.443%,–
CCC1S/C(=N/N=C/c2cccs2)NC1=O (stereo not drawn),–,"inconclusive: 35.5 µM [activator, partial curve, poor fit]"
N#C/C(=N\Nc1ccc(Cl)cc1)C(N)=S,inactive: 9.21%,–
Cc1ccccc1NC(=O)Nc1nnc(N(C)Cc2ccccc2)s1,inactive: 0.486%,–
O=C1c2[nH]nc(-c3ccccc3O)c2C(c2cccc(Cl)c2)N1CC1CCCO1 (stereo not drawn),inactive: 8.18%,–
O=C(Nc1ccccc1)Nc1cccc2nsnc12,–,"inconclusive: 3.16 µM [activator, full curve, poor fit]"
CCn1cc(C(=O)N2CCN(c3ccccc3OC)CC2)c(=O)c2cc(S(=O)(=O)N3CCCCC3)ccc21,inactive: -0.295%,–
c1coc(-c2ccnc(-c3ccncc3)n2)c1,–,"inconclusive: 17.8 µM [activator, partial curve, poor fit]"
O=C(/C=C/c1ccc(Cl)c([N+](=O)[O-])c1)Nc1cccnc1,–,"inconclusive: 17.8 µM [activator, single point]"
CCN1N=C(c2cc(Cl)sc2Cl)CSC1=O,–,"inconclusive: 11.2 µM [activator, single point]"
Cc1ccccc1-c1noc(N)c1C#N,–,active: 17.8 µM
COC(=O)c1ccc(S(=O)(=O)N2CCCN(Cc3ccc(F)cc3)CC2)n1C,inactive: 0.105%,–
CN1CCN(CCCNC(=O)c2cc3c(=O)n(C)c4ccccc4c3s2)CC1,–,"inconclusive: 8.91 µM [activator, partial curve, poor fit]"
C=CCOC(=O)C(=O)/C=C/c1ccc2c(c1)Cc1ccccc1-2,–,"inconclusive: 35.5 µM [activator, single point]"
c1ccc(CSc2nnc(-c3sccc3-n3cccc3)o2)cc1,–,"inconclusive: 17.8 µM [activator, single point]"
COc1ccccc1C(=O)COC(=O)c1cccs1,–,active: 8.91 µM
Cc1ccc(CC2S/C(=N/N=C/c3ccco3)NC2=O)cc1 (stereo not drawn),–,active: 4.47 µM
COc1cc(/C=C/c2ccc3c(Br)cc(Br)c(O)c3n2)ccc1O,–,"inconclusive: 3.16 µM [activator, partial curve, poor fit]"
COCCNc1nc2c(-c3cccc(C(F)(F)F)c3)nnn2c2ccccc12,–,"inconclusive: 7.08 µM [activator, partial curve]"
CCOC(=O)C1=C(C)N=c2s/c(=C\c3ccncc3)c(=O)n2C1c1ccc2c(c1)OCO2 (stereo not drawn),–,"inconclusive: 15.8 µM [activator, single point]"
Clc1ccccc1-c1nc(-c2cccnc2)no1,–,"inconclusive: 1.78 µM [activator, full curve, poor fit]"
